Assay results taken from the supplement of paper PMC12217912.
Some of the results follow. Sequences were assembled here from the parent chain. Values near 0.05 are background.

B1: TEV protease; numbered along this chain (parent)
chain: MGESLFKGPRDYNPISSSICHLTNESDGHTTSLYGIGFGPFIITNKHLFRRNNGTLVVQSLHGVFKVKDTTTLQQHLVDGRDMIIIRMPKDFPPFPQKLKFREPQREERICLVTTNFQTKSMSSMVSDTSCTFPSGDGIFWKHWIQTKDGQCGSPLVSTRDGFIVGIHSASNFTNTNNYFTSVPKNFMELLTNQEAQQWVSGWRLNADSVLWGGHKVFMVKPEEPFQPVKEATQL

Variants of: B1
Experiment: raw area under fraction-flipped curve 0-4 h after induction (AUC4h, not background-subtracted), DNA-recorder readout of cleavage of the substrate (dimensionless); higher = more cleavage of the substrate by the protease variant
Details: temperature: 34 °C; time window: 0-4 h after rhamnose induction
Experimental: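 In vivo DNA recorder in E. coli TOP10(DE3) ΔrhaA at 34 °C. Each TEVp single-site mutant (parent TEVp 0) is paired with a single-site variant of the 7-mer TEVs (canonical ENLYFQ|S). The substrate sits between flexible linkers in a Bxb1-sfGFP-TEVs-SsrA fusion, so cleavage stabilises Bxb1 and speeds flipping of a recombination array, read by NGS. The value is the raw area under the fraction-flipped curve over 0-4 h after rhamnose induction (AUC4h), with ≥20 reads per time point. It is not background-subtracted; inactive controls average about 0.047.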
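Further: Bxb1 expression induced with 0.2% (w/v) L-rhamnose at OD600 near 0.5, cultures sampled hourly, flipped fraction per protease–substrate barcode pair counted by paired-end Illumina sequencing.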

Row | Variant | area with substrate EALYFQS | area with substrate ECLYFQS | area with substrate EKLYFQS | area with substrate EMLYFQS | area with substrate ETLYFQS | area with substrate EVLYFQS | area with substrate EDLYFQS | area with substrate EELYFQS | area with substrate EHLYFQS | area with substrate EILYFQS | area with substrate ELLYFQS | area with substrate EPLYFQS | area with substrate EQLYFQS | area with substrate ERLYFQS | area with substrate ESLYFQS | area with substrate EWLYFQS | area with substrate EFLYFQS | area with substrate EGLYFQS | area with substrate EYLYFQS
1 | T119H | 0.211 | 0.0974 | 0.127 | 0.165 | 0.101 | 0.0896 | – | – | – | – | – | – | – | – | – | – | – | – | –
2 | F95W | 0.144 | 0.0851 | 0.0641 | 0.109 | – | 0.1 | 0.139 | 0.116 | 0.0889 | 0.0809 | 0.0785 | 0.108 | 0.154 | 0.0769 | 0.0862 | 0.106 | – | – | –
3 | R109H | 0.127 | 0.117 | 0.0951 | – | – | 0.0905 | – | – | – | – | – | – | 0.0996 | 0.122 | 0.101 | – | 0.0917 | 0.0821 | –
4 | L77V | 0.083 | – | 0.042 | – | – | 0.083 | – | – | 0.0663 | – | – | 0.104 | 0.0938 | 0.0831 | 0.0807 | – | – | 0.0801 | 0.0985
5 | L77D | 0.0748 | 0.0703 | 0.0706 | 0.0693 | 0.0418 | 0.025 | 0.0841 | 0.0642 | – | 0.0655 | 0.0634 | 0.0492 | 0.0666 | 0.0684 | 0.0771 | 0.0727 | 0.0652 | 0.0706 | –
6 | T114P | 0.0765 | 0.0736 | – | – | 0.086 | – | 0.0746 | 0.094 | – | – | 0.0697 | 0.088 | 0.0931 | – | 0.0662 | 0.0841 | – | – | –
7 | T114V | 0.118 | 0.0856 | – | 0.0766 | – | 0.134 | 0.17 | 0.125 | 0.0781 | 0.0798 | 0.0936 | 0.117 | – | 0.0991 | 0.0867 | 0.0971 | 0.0812 | 0.0853 | 0.114
8 | C111N | 0.137 | 0.0964 | – | 0.05 | – | 0.0895 | 0.0928 | 0.153 | 0.0707 | 0.073 | – | – | – | 0.0848 | 0.0919 | 0.0989 | – | 0.0734 | –
9 | V126R | 0.167 | 0.131 | 0.137 | 0.119 | 0.186 | 0.0822 | 0.13 | 0.148 | – | 0.0982 | – | 0.135 | – | 0.115 | 0.115 | 0.105 | 0.123 | 0.101 | 0.163
10 | F117G | 0.103 | 0.109 | 0.101 | 0.103 | – | 0.0792 | 0.104 | 0.117 | – | – | 0.0968 | – | 0.1 | – | 0.112 | 0.0166 | – | – | 0.0925
11 | F117K | 0.11 | 0.0832 | – | 0.0974 | 0.103 | 0.0947 | 0.182 | 0.103 | 0.0906 | – | – | – | 0.114 | 0.0964 | 0.113 | – | – | 0.0952 | –
12 | Q74E | 0.145 | 0.0958 | 0.0647 | 0.119 | 0.122 | 0.0862 | 0.0866 | – | – | – | – | – | 0.126 | 0.1 | 0.104 | – | 0.0836 | 0.103 | 0.0931
13 | S124E | 0.0959 | 0.109 | – | 0.111 | 0.0792 | – | 0.107 | 0.106 | – | – | – | – | 0.0955 | – | 0.0632 | – | – | – | –
14 | S124D | 0.116 | 0.101 | 0.102 | – | – | – | 0.112 | – | – | 0.0489 | – | – | 0.115 | 0.0955 | 0.0958 | 0.0799 | – | 0.07 | 0.0969
15 | S124Q | 0.159 | 0.103 | 0.0885 | 0.121 | 0.13 | 0.119 | 0.13 | 0.129 | – | – | – | 0.165 | 0.118 | 0.0994 | 0.114 | 0.0894 | 0.0983 | – | 0.149
16 | S123V | 0.119 | 0.111 | – | 0.0697 | 0.131 | 0.115 | – | – | 0.137 | 0.119 | 0.055 | 0.117 | – | 0.107 | 0.0882 | – | – | – | 0.0685
17 | R102D | 0.0517 | – | – | 0.0527 | 0.0474 | – | 0.0462 | – | 0.131 | – | – | – | 0.0502 | 0.0686 | 0.0535 | – | – | 0.0633 | –
18 | R102Q | 0.0508 | 0.0591 | – | – | – | – | 0.0659 | – | 0.0635 | 0.0441 | – | 0.0689 | 0.0399 | 0.0491 | 0.0695 | – | – | – | 0.0532
19 | R102W | 0.0427 | – | 0.0263 | 0.0598 | 0.0425 | 0.0559 | 0.0409 | 0.0342 | 0.0553 | 0.0483 | – | 0.0608 | 0.0501 | 0.0593 | 0.0578 | – | 0.0498 | 0.0376 | –
20 | G80R | 0.0898 | 0.108 | – | 0.11 | – | – | 0.0398 | 0.0622 | – | 0.11 | 0.0847 | – | 0.0644 | 0.131 | 0.0913 | 0.112 | – | – | 0.102
21 | M83I | 0.073 | – | – | 0.107 | – | – | 0.1 | – | – | – | – | – | – | 0.081 | 0.0766 | 0.0665 | 0.0855 | – | –
22 | Q97I | 0.121 | – | 0.105 | – | – | – | 0.101 | 0.137 | – | – | 0.133 | – | – | 0.0868 | 0.109 | – | – | 0.0848 | 0.0937
23 | R81D | 0.0627 | 0.0673 | 0.0517 | 0.0693 | – | 0.06 | – | 0.0546 | – | 0.0497 | – | – | 0.0766 | 0.0615 | 0.065 | 0.0669 | – | 0.0598 | 0.068
24 | R81E | 0.0729 | – | 0.0745 | 0.0741 | – | 0.0559 | 0.0804 | 0.0735 | – | 0.0581 | 0.0602 | 0.0794 | 0.0404 | 0.0819 | 0.0655 | 0.0653 | – | 0.0693 | –
25 | T115W | 0.0943 | 0.145 | – | – | – | 0.1 | – | – | 0.112 | 0.106 | 0.0802 | 0.0806 | 0.112 | – | – | – | 0.0913 | – | 0.0837
26 | K68Q | 0.137 | 0.108 | 0.0945 | 0.125 | – | 0.123 | – | 0.11 | – | 0.0964 | 0.0919 | – | 0.105 | – | 0.0994 | 0.0991 | – | 0.109 | –
27 | Q105G | 0.0959 | 0.0919 | 0.097 | 0.11 | – | 0.0795 | – | 0.0952 | – | 0.0875 | – | 0.0825 | 0.129 | 0.102 | 0.095 | – | 0.0984 | 0.108 | –
28 | Q105A | 0.0846 | 0.108 | 0.088 | 0.133 | – | 0.0777 | 0.119 | 0.115 | – | 0.0936 | 0.0449 | 0 | 0.11 | 0.104 | 0.101 | – | 0.13 | – | 0.119
29 | V113T | 0.0882 | – | 0.0764 | 0.0767 | – | 0.073 | 0.105 | 0.0597 | 0.0742 | 0.0702 | 0.0786 | 0.0911 | 0.0793 | 0.0873 | 0.0852 | – | 0.0793 | 0.0843 | 0.0836
